# In publication PMC6377148:
# Protein sequences, listed by entry. Tags and fused reporters are not part of them.
# UniProt P49336: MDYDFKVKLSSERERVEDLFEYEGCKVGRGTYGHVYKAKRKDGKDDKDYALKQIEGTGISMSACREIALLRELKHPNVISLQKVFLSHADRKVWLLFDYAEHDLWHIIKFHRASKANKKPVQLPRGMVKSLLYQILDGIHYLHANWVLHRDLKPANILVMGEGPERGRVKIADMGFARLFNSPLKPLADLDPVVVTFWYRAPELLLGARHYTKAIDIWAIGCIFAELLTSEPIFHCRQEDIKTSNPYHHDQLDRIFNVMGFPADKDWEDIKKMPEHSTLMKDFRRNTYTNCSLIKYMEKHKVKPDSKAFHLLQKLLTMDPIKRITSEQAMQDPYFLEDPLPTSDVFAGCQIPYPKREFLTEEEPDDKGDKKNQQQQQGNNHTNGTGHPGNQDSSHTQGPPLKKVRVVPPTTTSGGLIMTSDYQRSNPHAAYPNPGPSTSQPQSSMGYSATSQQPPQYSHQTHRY
# UniProt Q7Z2Z1: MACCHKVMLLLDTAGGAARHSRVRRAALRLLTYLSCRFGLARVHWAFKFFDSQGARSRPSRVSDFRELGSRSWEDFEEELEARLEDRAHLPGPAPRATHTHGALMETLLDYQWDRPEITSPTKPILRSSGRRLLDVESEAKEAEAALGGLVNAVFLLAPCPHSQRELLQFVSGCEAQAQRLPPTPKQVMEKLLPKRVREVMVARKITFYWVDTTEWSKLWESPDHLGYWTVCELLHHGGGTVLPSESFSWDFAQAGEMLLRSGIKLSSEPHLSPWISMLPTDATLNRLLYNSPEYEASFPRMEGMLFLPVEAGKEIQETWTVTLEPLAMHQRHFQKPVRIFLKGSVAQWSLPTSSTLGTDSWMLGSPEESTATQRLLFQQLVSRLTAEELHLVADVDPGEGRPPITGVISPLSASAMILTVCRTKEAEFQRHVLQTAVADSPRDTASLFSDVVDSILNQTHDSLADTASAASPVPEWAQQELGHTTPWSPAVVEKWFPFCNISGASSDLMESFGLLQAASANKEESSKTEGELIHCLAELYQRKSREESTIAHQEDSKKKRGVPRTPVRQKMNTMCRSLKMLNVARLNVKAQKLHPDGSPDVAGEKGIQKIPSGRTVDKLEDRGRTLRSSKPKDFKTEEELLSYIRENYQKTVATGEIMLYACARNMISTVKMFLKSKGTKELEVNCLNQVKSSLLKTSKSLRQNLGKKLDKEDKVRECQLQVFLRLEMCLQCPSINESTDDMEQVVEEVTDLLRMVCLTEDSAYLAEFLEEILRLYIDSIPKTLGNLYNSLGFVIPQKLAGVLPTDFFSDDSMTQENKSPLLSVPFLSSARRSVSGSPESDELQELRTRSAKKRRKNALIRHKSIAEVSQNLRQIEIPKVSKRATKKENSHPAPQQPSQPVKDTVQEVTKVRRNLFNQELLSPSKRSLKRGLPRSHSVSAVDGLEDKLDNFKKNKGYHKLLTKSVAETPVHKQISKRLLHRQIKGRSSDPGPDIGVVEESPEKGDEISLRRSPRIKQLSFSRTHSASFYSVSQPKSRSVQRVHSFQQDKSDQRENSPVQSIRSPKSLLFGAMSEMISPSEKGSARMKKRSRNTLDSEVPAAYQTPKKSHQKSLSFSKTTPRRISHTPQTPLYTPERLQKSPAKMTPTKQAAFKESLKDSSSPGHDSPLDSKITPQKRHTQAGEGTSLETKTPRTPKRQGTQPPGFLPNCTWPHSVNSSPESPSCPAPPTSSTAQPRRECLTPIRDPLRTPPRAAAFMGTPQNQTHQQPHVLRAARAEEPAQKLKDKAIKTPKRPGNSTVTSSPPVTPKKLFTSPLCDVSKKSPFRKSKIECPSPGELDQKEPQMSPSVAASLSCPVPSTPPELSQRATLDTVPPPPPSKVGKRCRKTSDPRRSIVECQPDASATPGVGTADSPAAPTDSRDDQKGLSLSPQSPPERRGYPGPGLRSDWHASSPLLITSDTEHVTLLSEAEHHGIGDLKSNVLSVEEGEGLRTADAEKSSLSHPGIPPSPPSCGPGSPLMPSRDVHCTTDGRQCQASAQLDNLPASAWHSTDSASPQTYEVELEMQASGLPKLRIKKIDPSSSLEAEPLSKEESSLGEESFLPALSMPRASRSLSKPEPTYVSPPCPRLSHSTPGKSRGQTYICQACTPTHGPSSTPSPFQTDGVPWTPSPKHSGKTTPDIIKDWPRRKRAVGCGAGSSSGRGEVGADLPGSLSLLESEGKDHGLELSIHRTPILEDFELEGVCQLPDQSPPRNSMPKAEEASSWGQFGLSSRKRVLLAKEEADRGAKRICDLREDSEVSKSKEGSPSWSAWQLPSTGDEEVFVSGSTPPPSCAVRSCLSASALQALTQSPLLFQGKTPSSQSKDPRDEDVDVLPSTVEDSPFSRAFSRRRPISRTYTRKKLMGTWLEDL
# Results are given in words; binding and its absence hold for the method and conditions named. In cells and extracts the contact can be indirect. Some entries that bind do so weakly or less than the wild type. Where a sequence is shown, tags or fusion partners need not be part of it.
# Key:
# Assay in all cases: co-IP; anti-GFP (GFP nanobodies, mock-coupled control beads) IP from native lysates of HeLa Flip-In T-Rex lines expressing MTBP-3×Flag-TEV2-GFP (WT or deletions); endogenous Treslin/TICRR and Cdk8 by immunoblot
# [1] = target: T1, MTBP-ΔR595–P704-Flag3-TEV2-GFP (human) (UniProt Q96DY7)
# T1 sequence: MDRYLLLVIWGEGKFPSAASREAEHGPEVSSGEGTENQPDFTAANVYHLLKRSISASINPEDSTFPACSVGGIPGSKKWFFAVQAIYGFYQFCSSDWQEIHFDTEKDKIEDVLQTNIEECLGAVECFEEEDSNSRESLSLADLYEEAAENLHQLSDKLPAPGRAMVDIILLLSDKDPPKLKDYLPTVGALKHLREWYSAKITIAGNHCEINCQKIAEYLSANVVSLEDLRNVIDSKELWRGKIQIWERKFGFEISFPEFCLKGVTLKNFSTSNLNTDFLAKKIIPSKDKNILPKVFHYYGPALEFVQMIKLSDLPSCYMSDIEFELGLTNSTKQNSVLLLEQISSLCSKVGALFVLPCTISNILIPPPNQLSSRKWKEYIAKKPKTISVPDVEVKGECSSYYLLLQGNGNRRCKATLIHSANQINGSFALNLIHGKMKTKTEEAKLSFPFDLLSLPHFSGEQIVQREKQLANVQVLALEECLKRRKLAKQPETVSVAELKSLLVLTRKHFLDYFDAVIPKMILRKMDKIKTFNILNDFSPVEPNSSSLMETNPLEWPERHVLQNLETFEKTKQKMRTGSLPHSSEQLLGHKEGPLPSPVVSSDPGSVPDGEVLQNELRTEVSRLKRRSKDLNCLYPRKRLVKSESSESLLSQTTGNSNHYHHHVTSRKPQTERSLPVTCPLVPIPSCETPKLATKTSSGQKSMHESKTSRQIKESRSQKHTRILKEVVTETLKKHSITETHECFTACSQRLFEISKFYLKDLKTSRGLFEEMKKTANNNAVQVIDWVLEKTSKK
# [2] = target: T2, MTBP-Δ516–809–3×Flag-TEV2-GFP-NLS (mSld7) (human) (UniProt Q96DY7)
# T2 sequence: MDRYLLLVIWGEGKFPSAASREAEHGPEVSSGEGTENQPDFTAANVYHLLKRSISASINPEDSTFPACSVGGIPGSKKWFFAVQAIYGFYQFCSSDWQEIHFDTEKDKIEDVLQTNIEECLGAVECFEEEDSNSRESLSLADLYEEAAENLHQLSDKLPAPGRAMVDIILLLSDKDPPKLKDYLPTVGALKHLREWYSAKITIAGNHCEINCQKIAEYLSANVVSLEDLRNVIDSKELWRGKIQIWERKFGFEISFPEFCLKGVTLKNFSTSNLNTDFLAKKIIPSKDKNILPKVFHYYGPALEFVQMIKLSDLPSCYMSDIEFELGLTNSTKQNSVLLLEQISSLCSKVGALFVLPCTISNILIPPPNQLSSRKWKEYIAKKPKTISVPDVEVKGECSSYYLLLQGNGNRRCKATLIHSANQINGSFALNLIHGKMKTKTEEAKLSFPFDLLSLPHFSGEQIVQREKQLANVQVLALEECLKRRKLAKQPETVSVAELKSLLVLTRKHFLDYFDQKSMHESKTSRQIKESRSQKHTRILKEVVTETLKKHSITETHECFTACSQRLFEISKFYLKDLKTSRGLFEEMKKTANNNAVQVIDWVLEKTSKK
# [3] = target: T3, MTBP-Δ516–769–3×Flag-TEV2-GFP-NLS (mSld7) (human) (UniProt Q96DY7)
# T3 sequence: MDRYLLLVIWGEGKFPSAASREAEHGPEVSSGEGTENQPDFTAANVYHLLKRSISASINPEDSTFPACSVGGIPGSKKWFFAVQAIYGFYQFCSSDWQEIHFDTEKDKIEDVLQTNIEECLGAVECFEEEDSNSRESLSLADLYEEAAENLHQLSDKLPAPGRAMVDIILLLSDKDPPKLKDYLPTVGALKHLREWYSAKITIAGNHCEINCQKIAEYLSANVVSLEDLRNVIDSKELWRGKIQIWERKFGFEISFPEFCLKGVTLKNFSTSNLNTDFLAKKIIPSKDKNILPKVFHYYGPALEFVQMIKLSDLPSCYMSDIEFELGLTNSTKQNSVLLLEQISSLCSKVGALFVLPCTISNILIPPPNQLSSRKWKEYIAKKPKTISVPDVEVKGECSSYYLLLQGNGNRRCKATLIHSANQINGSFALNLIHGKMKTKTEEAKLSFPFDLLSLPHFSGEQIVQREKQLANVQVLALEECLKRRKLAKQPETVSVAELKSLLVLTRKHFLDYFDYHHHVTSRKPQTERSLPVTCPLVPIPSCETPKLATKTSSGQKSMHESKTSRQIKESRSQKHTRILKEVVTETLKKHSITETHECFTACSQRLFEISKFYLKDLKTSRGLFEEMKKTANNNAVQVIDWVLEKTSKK
substance,measurement,setting,value
"Cdk8 (cyclin-dependent kinase 8), endogenous (from UniProt P49336 1-464) (enzyme)",binding,[1],no binding
"Treslin/TICRR (TopBP1-interacting replication stimulating protein/TopBP1-interacting checkpoint and replication regulator), endogenous (from UniProt Q7Z2Z1 1-1910)",binding,[2],binds
same,binding,[3],binds
